Measurements: US20090291088A1, “THERAPEUTIC COMBINATIONS OF ANTI-IGF-1R ANTIBODIES AND OTHER COMPOUNDS” (Biogen Idec MA Inc., priority 2008, published 2009)

Target: T1, IGF-1R-expressing MCF7 cells (Homo sapiens, UniProt P08069)
T1 construct: endogenous in cells; host or cells: MCF7 human mammary adenocarcinoma cells
Assay: FACS staining of MCF7 cells with conditioned medium of chimeric antibody transfectants
Assay type: binding
Conditions: conditioned medium from transfected 293-EBNA cells
Experimental: (§1) The chP2A7 heavy chain expression vector and the chP2A7 light chain expression vector were co-transfected into 293-EBNA cells and transfected cells were tested for antibody secretion and specificity. Empty vector- and hu5c8-S228P/T299A IgG4 (a molecularly cloned CD40L-specific mAb)-transfected cells served as controls. […] CHO cells were co-transfected with the chP2A7 heavy chain expression vector and the chP2A7 light chain expression vector to generate stable lines expressing chimeric P2A7-aglycosylated huIgG4, kappa mAb.
as §1, with “The ch20C8” for “The chP2A7”, “and ch20C8” for “and the chP2A7”, “the ch20C8” for “the chP2A7”, “chimeric 20C8-aglycosylated” for “chimeric P2A7-aglycosylated”
The chP1G10 heavy chain expression vector and chP1G10 light chain expression vector were co-transfected into 293-EBNA cells and transfected cells were tested for antibody secretion and specificity (empty vector- and hu5c8-S228P/T299A IgG4 (a molecularly cloned CD40L-specific mAb)-transfected cells served as controls). […]

binding to IGF-1R-expressing MCF7 cells (FACS): bound with a titratable dose response
B1: ch20C8: chimeric 20C8-aglycosylated huIgG4, kappa mAb; SEQ ID NO:141, 143 (antibody)
heavy: DVQLQESGPDLVKPSQSLSLTCTVTGYSITSGYSWHWIRQFPGNKLEWMGYIHYSGGTNYNPSLKSRISITRDTSKNQFFLQLNSVTTEDTATYYCARSGYGYRSAYYFDYWGQGTTVTVSSASTKGPSVFPLAPCSRSTSESTAALGCLVKDYFPEPVTVSWNSGALTSGVHTFPAVLQSSGLYSLSSVVTVPSSSLGTKTYTCNVDHKPSNTKVDKRV[human IgG4 Fc with S228P T299A (EU numbers) not written out]
light: DIVLTQSPASLAVSLGQRATISCRASKSVSTSAYSYMHWYQQKPGQPPKLLIYLASNLESGVPARFSGSGSGTDFTLNIHPVEEEDAATYYCQHSRELPYTFGGGTKLEIKRTVAAPSVFIFPPSDEQLKSGTASVVCLLNNFYPREAKVQWKVDNALQSGNSQESVTEQDSKDSTYSLSSTLTLSKADYEKHKVYACEVTHQGLSSPVTKSFNRGEC
modifications: Chimeric antibody heavy chain; Chimeric antibody light chain
